# Out of some 310,000 compounds screened, about 18,000 (5.8%) were called active. Inconclusive means that the source gave no clear call. Such entries were picked first, then a sample of the others. Calls follow the shape of the dose curve; as a rule, active = well fitted inhibition curve with a large enough effect; inconclusive = small, poorly fitted or top-dose-only effect, or another doubt; inactive = no such curve, though single readings can be large or run the other way. Potencies of inconclusive entries are left out as doubtful fits.
# Assay: Primary qHTS for delayed death inhibitors of the malarial parasite plastid, 48 hour incubation
# Conditions: P. falciparum luciferase growth in erythrocytes; series mostly up to 28.7 µM; activity change, negative = inhibition: at the top concentration
# Description: The goal of this screen is to discover new antimalarial compounds that act by inhibiting the development of the apicoplast in the malarial parasite Plasmodium falciparum. The biochemical processes that make this organelle essential for erythrocytic stage parasites are not well understood. However, antibiotics such as azithromycin and tetracycline, which target the apicoplast translational machinery, have a potent antimalarial effect.
# We have developed a cell-based assay that measures parasite growth based on the expression of an integrated copy of a firefly luciferase reporter. To detect small molecules that cause this "delayed death" phenotype, erythrocytes infected with the luciferase-expressing parasites were incubated with compounds for either one or two generations, corresponding to 48 and 96 hours, respectively. Compounds that inhibit parasite growth in the second generation, but not the first, should be enriched in antimalarials that target the apicoplast. Growth inhibition is detected by a decrease in luciferase activity.
# Assay Provider: David Fidock and Eric Ekland, Columbia University
# Keywords: NIH Roadmap, MLPCN, MLI, MLSMR, qHTS, NCGC, qHTS, malaria, luciferase, viability
# Four microliters of culture medium (RPMI 1640 with 0.5% w/v Albumax (GIBCO), 24 mM sodium bicarbonate and 10 ug/mL gentamycin) were dispensed by a Multi-drop Combi into white solid 1536-well plates (Grenier) and 23 nL compound was added by a pin tool. Four microliters of infected erythrocytes (2% hematocrit, 0.1% parasitemia final concentration) in culture medium were dispensed and the plates incubated for 48 hours at 37 C in 5% CO2. Two microliters of luciferase detection reagent was added and luminescence was detected by a ViewLux (PerkinElmer) reader.
# % is scaled to controls: 0 for no effect and ±100 for the full control effect; potency is read from the fitted curve at half-maximal effect; tags tell the direction and shape of the fitted curve.
SMILES,Potency,"activity change, negative = inhibition"
CCCCn1c2nc3ccccc3nc2c2c(=O)n(CCC)cnc21,"inconclusive [inhibitor, full curve]",
C[C@]12CC[C@H](OS(=O)(=O)O)CC1=CC[C@@H]1[C@@H]2CC[C@]2(C)C(=O)CC[C@@H]12,inactive,
COc1ccc(/C=N\NC(=O)c2sccc2C)cc1Cn1nc(C)cc1C,"inconclusive [inhibitor, partial curve, poor fit]",
CC1(C)CC(=O)c2c(Cc3ccccc3)n[nH]c2C1,"inconclusive [inhibitor, full curve, poor fit]",
CCCn1c(SCC(=O)Nc2cccc(F)c2)nc(O)cc1=O,"inconclusive [inhibitor, single point]",
COc1ccc(-c2nc(SCC(=O)Nc3nccs3)c(-c3ccc(Cl)cc3)[nH]2)cc1,"inconclusive [inhibitor, single point]",
CCOc1ccc(N2C(=O)NC(=O)/C(=C\c3ccccc3[N+](=O)[O-])C2=O)cc1,,inactive: 9.14%
COc1ccc(NC(=O)CN2C(=O)c3ccccc3S2(=O)=O)cc1S(=O)(=O)N1CCOCC1,,inactive: 0.158%
COc1ccccc1NC(=O)CSC1=NC(=O)C(NC(C)=O)C(=O)N1 (stereo not drawn),,inactive: 4.42%
Cc1ccc(C(=O)CSc2nc(-c3ccccc3)cc(=O)[nH]2)cc1,"inconclusive [inhibitor, full curve, poor fit]",
COc1ccc(CN(C(=O)Cc2c[nH]c3ccccc23)C(C(=O)NC2CCCCC2)c2ccc(C)o2)cc1 (stereo not drawn),active: 5.22 µM,
COc1cc(OC)cc(C(=O)N/N=C\c2ccoc2)c1,,inactive: -2.23%
COc1ccc(Nc2ccc([N+](=O)[O-])c3nonc23)c(OC)c1,"inconclusive [inhibitor, full curve, poor fit]",
O=C(NCc1ccncc1)/C(=C/c1cccc([N+](=O)[O-])c1)NC(=O)c1ccccc1,,inactive: 34.7%
O=C(NCC1CCCO1)c1csc(Nc2cccc3ccccc23)n1 (stereo not drawn),"inconclusive [inhibitor, single point]",
CN(c1cccc(NC(=O)CN(c2ccc(F)cc2)S(C)(=O)=O)c1)S(C)(=O)=O,"inconclusive [inhibitor, single point]",
CCOc1cc2c(cc1OCC)-n1cccc1C(c1cc(OC)ccc1F)NC2 (stereo not drawn),"inconclusive [inhibitor, partial curve]",
COc1ccccc1Nc1nc(N)nc(CSC(=S)N2CCN(c3ccccc3)CC2)n1,"inconclusive [inhibitor, partial curve]",
COc1cccc(CNC(=O)Cn2c(=O)oc3cc(S(=O)(=O)N4CCCCC4)ccc32)c1,"inconclusive [inhibitor, partial curve, poor fit]",
COc1ccccc1C(=O)N/C(=C\c1cn(S(=O)(=O)N(C)C)c2ccccc12)C(=O)N1CCCCC1,"inconclusive [inhibitor, full curve]",
COc1ccc(C2(O)CC3CCC(C2)N3c2cc(C)nc(-c3ccccc3)n2)cc1 (stereo not drawn),active: 11.7 µM,
Cc1ccc(OCC(=O)Nc2ccc(Cl)cc2C(=O)c2ccccc2)cc1,"inconclusive [inhibitor, single point]",

SMILES,Potency,"activity change, negative = inhibition"
CC1=NN=C(c2ccccc2)C(c2c[nH]c3ccccc23)N1O (stereo not drawn),"inconclusive [inhibitor, partial curve, poor fit]",
O=C(CSc1n[nH]c(-c2ccccn2)n1)Nc1cccc(Cl)c1,"inconclusive [inhibitor, single point]",
CCN(CC)C(=O)C(=O)N/N=C/c1ccc(C(=O)OC)cc1,,inactive: 18.7%
O=C(NCC(c1ccccc1)N1CCCC1)C1CCN(C(=O)Nc2ccccc2)CC1 (stereo not drawn),"inconclusive [inhibitor, single point]",
N#Cc1nc(Cc2cccc3ccccc23)oc1NCc1ccco1,"inconclusive [inhibitor, partial curve, poor fit]",
O=C(O)CC(Cc1ccccc1)C(=O)NCC12CC3CC(CC(C3)C1)C2 (stereo not drawn),"inconclusive [inhibitor, single point]",
CCOC(=O)C1=C(C)N(C)C(=S)N(C)C1c1ccc(OC)cc1 (stereo not drawn),"inconclusive [inhibitor, single point]",
CC(=O)Nc1nonc1-c1nc2ccccc2n1CCC(C)C,,inactive: 93.1%
Cc1ccc(N(C(=O)Cn2nnc3ccccc32)C(C(=O)NCc2ccco2)c2ccc(C)o2)cc1 (stereo not drawn),active: 13.1 µM,
Cc1nc2ccc(S(=O)(=O)NCC(=O)N3CCCC(C)C3)cc2s1 (stereo not drawn),,inactive: -5.63%
Cc1ccc(C(C(=O)Nc2ccc3c(c2)OCO3)N(C)C(=O)/C=C\c2ccc3c(c2)OCO3)cc1 (stereo not drawn),active: 13.1 µM,
CCCN(CC(=O)Nc1ccccc1C)C(=O)Cc1cccs1,"inconclusive [inhibitor, partial curve, poor fit]",
O=C(NCc1ccncc1)c1ccc(N2CCCC2)c([N+](=O)[O-])c1,,inactive: 17%
CCCN(CCC(=O)Nc1cc(OC)cc(OC)c1)CC1CC1,"inconclusive [inhibitor, single point]",
Cn1c(CC(=O)NCCO)c(Sc2ccccc2)c2ccccc21,"inconclusive [inhibitor, partial curve]",
COc1cc2c(cc1OC)N1C(=O)CC(OCC(=O)O)C3C4CC5(CCN5C(=O)C4=O)C2C31 (stereo not drawn),active: 11.7 µM,
CCOc1cc(NC(=O)C2CC2)c(OCC)cc1NC(=O)c1ccccn1,active: 14.7 µM,
Cc1cccc2nc(C(F)(F)F)nc(=O)n12,"inconclusive [inhibitor, full curve, poor fit]",
CCCc1cc(=O)[nH]c2nnc(SCC(=O)Nc3nnc(CC)s3)n12,"inconclusive [inhibitor, partial curve, poor fit]",
CC(C)CN1CCN(Cc2ccc(CN3CCCCC3)s2)CC1CCO (stereo not drawn),"inconclusive [inhibitor, single point]",
COc1ccc(NC(=O)COc2cccc3c2CCN(Cc2cccnc2)C3=O)c(OC)c1,active: 5.22 µM,

# Source: PubChem BioAssay AID504832 (National Center for Advancing Translational Sciences (NCATS), 2011)
